Results: patent US20240181007A1, “COMPOSITIONS AND METHODS FOR TREATING PULMONARY HYPERTENSION” (Acceleron Pharma Inc., priority 2021, published 2024)
Blank lines part the entries; values can stand above or below the binder they belong to.

Experiments:
activin A [1] = target: T1, activin A (UniProt P08476 311-426); experiment: cell-based or functional assay
T1 sequence (looked up): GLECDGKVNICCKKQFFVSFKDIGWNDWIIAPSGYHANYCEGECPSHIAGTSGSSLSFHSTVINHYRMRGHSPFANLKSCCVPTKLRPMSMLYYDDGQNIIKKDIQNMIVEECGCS

BMP9 [2] = target: T2, BMP9 (UniProt Q9UK05 320-429); experiment: cell-based or functional assay
T2 sequence (looked up): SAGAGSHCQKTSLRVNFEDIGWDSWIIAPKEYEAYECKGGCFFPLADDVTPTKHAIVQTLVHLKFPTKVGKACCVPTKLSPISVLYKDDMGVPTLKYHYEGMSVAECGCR

GDF11 [3] = target: T3, GDF11 (UniProt O95390 299-407); experiment: cell-based or functional assay
T3 sequence (looked up): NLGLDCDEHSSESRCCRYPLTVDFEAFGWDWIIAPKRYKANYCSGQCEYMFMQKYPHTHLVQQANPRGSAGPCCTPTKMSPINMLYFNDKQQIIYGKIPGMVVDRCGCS

activin A [4] = target: T1, activin A; experiment: SPR (Biacore), 37 C; Fc fusion captured via anti-Fc, ligand injected
Procedure: (§1) To determine ligand binding profiles of variant ActRIIB-Fc homodimers, a Biacore™-based binding assay was used to compare ligand binding kinetics of certain variant ActRIIB-Fc polypeptides. ActRIIB-Fc polypeptides to be tested were independently captured onto the system using an anti-Fc antibody. Ligands were then injected and allowed to flow over the captured receptor protein. ActRIIB-G1Fc was used as the control polypeptide.

activin B [5] = target: T4, activin B (UniProt P09529 293-407); experiment: as above
T4 sequence (looked up): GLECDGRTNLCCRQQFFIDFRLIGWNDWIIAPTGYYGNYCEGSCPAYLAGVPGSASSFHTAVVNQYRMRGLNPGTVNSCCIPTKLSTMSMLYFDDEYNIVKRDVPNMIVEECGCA
Procedure: as §1

activin A [6] = target: T1, activin A; experiment: cell-based or functional assay; remark: listed apart in the source
GDF8 [7] = target: T5, GDF8 (UniProt O14793 267-375); experiment: cell-based or functional assay
T5 sequence (looked up): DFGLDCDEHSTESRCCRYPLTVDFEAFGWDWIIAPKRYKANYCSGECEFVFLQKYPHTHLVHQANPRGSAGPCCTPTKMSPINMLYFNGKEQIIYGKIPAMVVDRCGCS

BMP10 [8] = target: T6, BMP10 (UniProt O95393 317-424); experiment: cell-based or functional assay
T6 sequence (looked up): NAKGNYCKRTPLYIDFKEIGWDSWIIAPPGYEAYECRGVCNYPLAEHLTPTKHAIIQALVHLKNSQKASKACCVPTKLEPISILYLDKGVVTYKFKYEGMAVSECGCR

activin B [9] = target: T4, activin B; experiment: cell-based or functional assay
BMP9 [10] = target: T2, BMP9; experiment: cell-based or functional assay; remark: listed apart in the source
GDF11 [11] = target: T3, GDF11; experiment: cell-based or functional assay; remark: listed apart in the source
activin A [12] = target: T1, activin A; experiment: SPR (Biacore), fusion protein captured by anti-Fc antibody, ligand injected, 37 C
Procedure: (§2) A Biacore™-based binding assay was used to compare the ligand binding kinetics of an ActRIIB-Fc:ActRIIB(L79E)-Fc heterodimer with those of unmodified ActRIIB-Fc homodimer. Fusion proteins were captured onto the system using an anti-Fc antibody. Ligands were then injected and allowed to flow over the captured receptor protein at 37° C. Results are summarized in the table below, in which ligand off-rates (kd) most indicative of effective ligand traps are denoted in bold.

GDF8 [13] = target: T5, GDF8; experiment: as above
Procedure: as §2

BMP10 [14] = target: T6, BMP10; experiment: as above
Procedure: as §2

GDF3 = target: T7, GDF3 (UniProt Q9NR23 251-364); experiment: as above
T7 sequence (looked up): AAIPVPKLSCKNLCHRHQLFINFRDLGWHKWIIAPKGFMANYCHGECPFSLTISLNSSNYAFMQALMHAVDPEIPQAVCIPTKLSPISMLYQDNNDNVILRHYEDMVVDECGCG
Procedure: as §2

activin B [15] = target: T4, activin B; experiment: as above
Procedure: as §2

BMP9 [16] = target: T2, BMP9; experiment: as above
Procedure: as §2

BMP6 = target: T8, BMP6 (UniProt P22004 382-513, limits assumed); experiment: as above
T8 sequence (looked up): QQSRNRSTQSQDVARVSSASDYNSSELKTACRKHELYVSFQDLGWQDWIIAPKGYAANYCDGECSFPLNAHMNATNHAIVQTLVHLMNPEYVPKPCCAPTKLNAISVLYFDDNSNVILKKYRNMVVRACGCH
Procedure: as §2

GDF11 [17] = target: T3, GDF11; experiment: as above
Procedure: as §2

activin A [18] = target: T1, activin A; experiment: SPR (Biacore), 37 C; Fc fusion captured via anti-Fc, ligand injected; ka/kd cell reads Transient* (indeterminate, transient interaction)
Procedure: as §1

IC50 (ng/ml), A204 CAGA12 luciferase reporter assay (activin A [1]): 8 ng/mL | IC50 (ng/ml), A204 CAGA12 luciferase reporter assay (BMP9 [2]): 31 ng/mL | IC50 (ng/ml), A204 CAGA12 luciferase reporter assay (GDF11 [3]): 9 ng/mL | Kd (activin A [4]): 0.0146 nM | koff (activin A [4]): 0.000114 s⁻¹ | kon (activin A [4]): 7.82e+06 M⁻¹ s⁻¹ | Kd (activin B [5]): 0.0085 nM | koff (activin B [5]): 6.17e-05 s⁻¹ | kon (activin B [5]): 7.22e+06 M⁻¹ s⁻¹ | IC50 (nM), A204 CAGA12 luciferase reporter assay (activin A [6]): 0.05 nM | IC50 (nM), A204 CAGA12 luciferase reporter assay (GDF8 [7]): 0.95 nM | IC50 (nM), A204 CAGA12 luciferase reporter assay (BMP10 [8]): 0.036 nM | IC50 (nM), A204 CAGA12 luciferase reporter assay (activin B [9]): 0.067 nM | IC50 (nM), A204 CAGA12 luciferase reporter assay (BMP9 [10]): 1.82 nM | IC50 (nM), A204 CAGA12 luciferase reporter assay (GDF11 [11]): 0.12 nM | Kd (activin A [12]): 0.025 nM | koff (activin A [12]): 0.00019 s⁻¹ | kon (activin A [12]): 7.4e+06 M⁻¹ s⁻¹ | Kd (GDF8 [13]): 0.07 nM | koff (GDF8 [13]): 0.00026 s⁻¹ | kon (GDF8 [13]): 3.8e+06 M⁻¹ s⁻¹ | Kd (BMP10 [14]): 0.004 nM | koff (BMP10 [14]): 0.0002 s⁻¹ | kon (BMP10 [14]): 5.1e+07 M⁻¹ s⁻¹ | Kd (GDF3): 1.5 nM | koff (GDF3): 0.0022 s⁻¹ | kon (GDF3): 1.4e+06 M⁻¹ s⁻¹ | Kd (activin B [15]): 0.008 nM | koff (activin B [15]): 6.6e-05 s⁻¹ | kon (activin B [15]): 8.1e+06 M⁻¹ s⁻¹ | Kd (BMP9 [16]): 0.25 nM | koff (BMP9 [16]): 0.0013 s⁻¹ | kon (BMP9 [16]): 5e+06 M⁻¹ s⁻¹ | Kd (BMP6): 0.056 nM | koff (BMP6): 0.0074 s⁻¹ | kon (BMP6): 1.3e+08 M⁻¹ s⁻¹ | Kd (GDF11 [17]): 0.004 nM | koff (GDF11 [17]): 0.00017 s⁻¹ | kon (GDF11 [17]): 4.1e+07 M⁻¹ s⁻¹
B1: ActRIIB-G1Fc (Fc fusion)
chain: GRGEAETRECIYYNANWELERTNQSGLERCEGEQDKRLHCYASWRNSSGTIELVKKGCWLDDFNCYDRQECVATEENPQVYFCCCEGNFCNERFTHLPEAGGPEVTYEPPPTAPTG[human IgG1 Fc and a few adjoining residues left out here]
notes: Homodimeric Fc fusion, mature form as purified from CHO cells; also called ActRIIB-Fc; ActRIIB-Fc homodimer

Kd (activin A [18]): 3.38 nM | Kd (activin B [5]): 0.0158 nM | koff (activin B [5]): 0.000224 s⁻¹ | kon (activin B [5]): 1.42e+07 M⁻¹ s⁻¹ | IC50 (nM), A204 CAGA12 luciferase reporter assay (activin A [6]): > 100 nM | IC50 (nM), A204 CAGA12 luciferase reporter assay (GDF8 [7]): > 10 nM | IC50 (nM), A204 CAGA12 luciferase reporter assay (BMP10 [8]): > 100 nM | IC50 (nM), A204 CAGA12 luciferase reporter assay (activin B [9]): 0.15 nM | IC50 (nM), A204 CAGA12 luciferase reporter assay (GDF11 [11]): 0.36 nM
B2: ActRIIB(L79H-F82I)-G1Fc (Fc fusion)
chain: GRGEAETRECIYYNANWELERTNQSGLERCEGEQDKRLHCYASWRNSSGTIELVKKGCWHDDINCYDRQECVATEENPQVYFCCCEGNFCNERFTHLPEAGGPEVTYEPPPTAPTG[human IgG1 Fc and a few adjoining residues left out here]
notes: Homodimeric Fc fusion; substitutions already in the entry
